Experimental data from paper PMC7060337.
No constants are given. Whether binding was seen depends on the method and setting. In cells and extracts the contact can be indirect. Some entries that bind do so weakly or less than the wild type.

Amino acid sequences for entries named in this document (tags omitted). A change or cut given only in a name is not applied to a line headed by its entry. Chains listed by the source or under a name are the forms on record and can include a tag or linker. Residues count along the entry.
UniProt Q92597: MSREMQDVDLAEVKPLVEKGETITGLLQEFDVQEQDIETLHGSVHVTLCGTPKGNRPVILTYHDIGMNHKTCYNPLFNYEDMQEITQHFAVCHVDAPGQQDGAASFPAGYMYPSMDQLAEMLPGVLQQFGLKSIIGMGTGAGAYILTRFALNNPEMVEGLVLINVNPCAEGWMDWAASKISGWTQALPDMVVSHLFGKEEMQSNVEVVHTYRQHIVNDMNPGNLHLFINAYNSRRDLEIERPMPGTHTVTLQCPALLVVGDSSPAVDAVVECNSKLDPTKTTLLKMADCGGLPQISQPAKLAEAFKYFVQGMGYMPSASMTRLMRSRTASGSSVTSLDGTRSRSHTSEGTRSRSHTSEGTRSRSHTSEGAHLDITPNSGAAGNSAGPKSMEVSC
GST-tagged NDRG1 deletion mutant Δ3 (total phosphorylation sites on the C-terminal domain, 307–394AA, deleted): residues 1-306 of Q92597
GST-tagged NDRG1 deletion mutant Δ1 (N-terminal domain 1–89AA deleted): residues 90-394 of Q92597

Columns and labels:
[1] = biological target: N-myc downstream regulated gene 1 (NDRG1), endogenous in HUVECs (human (endogenous in HUVECs)) (UniProt Q92597); assay: proximity ligation; Duolink PLA In Situ Red kit in HUVECs, mouse anti-PLCγ1 and rabbit anti-NDRG1 as primary antibodies; absence and presence of VEGF-A (5 min)
[2] = biological target: N-myc downstream regulated gene 1 (NDRG1), endogenous in HUVECs (human (endogenous in HUVECs)) (UniProt Q92597); assay: co-IP; HUVEC extract (IP lysis buffer: 50 mM Tris-HCl pH 8.0, 250 mM NaCl, 1 mM EDTA, 10% glycerol, 0.3% NP-40) incubated overnight at 4 °C with antibodies to NDRG1 or PLCγ1 in NET-gel buffer, Protein G Agarose; western blot; cells with or without VEGF-A
GST-tagged NDRG1 = GST-tagged NDRG1 (UniProt Q92597); assay: pull-down; GST fusion proteins immobilised on Glutathione Sepharose 4B, incubated with total cell lysate of HUVECs overnight at 4 °C; X-buffer (50 mM Tris-HCl pH 8.0, 1 mM EDTA, 120 mM NaCl, 0.5% NP-40, 10% glycerol, 1 mM PMSF); western blot with anti-PLCγ1; only the target purified
[3] = biological target: GST-tagged NDRG1 deletion mutant Δ1 (N-terminal domain 1–89AA deleted) (UniProt Q92597); assay: as above
[4] = biological target: GST-tagged NDRG1 deletion mutant Δ3 (total phosphorylation sites on the C-terminal domain, 307–394AA, deleted) (UniProt Q92597); assay: as above

binding [1]: binds
binding [2]: binds
binding (GST-tagged NDRG1): binds
binding [3]: binds
binding [4]: no binding
B1: phospholipase Cγ1 (PLCγ1), endogenous in HUVECs (enzyme, UniProt P19174 1-1290)
chain: MAGAASPCANGCGPGAPSDAEVLHLCRSLEVGTVMTLFYSKKSQRPERKTFQVKLETRQITWSRGADKIEGAIDIREIKEIRPGKTSRDFDRYQEDPAFRPDQSHCFVILYGMEFRLKTLSLQATSEDEVNMWIKGLTWLMEDTLQAPTPLQIERWLRKQFYSVDRNREDRISAKDLKNMLSQVNYRVPNMRFLRERLTDLEQRSGDITYGQFAQLYRSLMYSAQKTMDLPFLEASTLRAGERPELCRVSLPEFQQFLLDYQGELWAVDRLQVQEFMLSFLRDPLREIEEPYFFLDEFVTFLFSKENSVWNSQLDAVCPDTMNNPLSHYWISSSHNTYLTGDQFSSESSLEAYARCLRMGCRCIELDCWDGPDGMPVIYHGHTLTTKIKFSDVLHTIKEHAFVASEYPVILSIEDHCSIAQQRNMAQYFKKVLGDTLLTKPVEISADGLPSPNQLKRKILIKHKKLAEGSAYEEVPTSMMYSENDISNSIKNGILYLEDPVNHEWYPHYFVLTSSKIYYSEETSSDQGNEDEEEPKEVSSSTELHSNEKWFHGKLGAGRDGRHIAERLLTEYCIETGAPDGSFLVRESETFVGDYTLSFWRNGKVQHCRIHSRQDAGTPKFFLTDNLVFDSLYDLITHYQQVPLRCNEFEMRLSEPVPQTNAHESKEWYHASLTRAQAEHMLMRVPRDGAFLVRKRNEPNSYAISFRAEGKIKHCRVQQEGQTVMLGNSEFDSLVDLISYYEKHPLYRKMKLRYPINEEALEKIGTAEPDYGALYEGRNPGFYVEANPMPTFKCAVKALFDYKAQREDELTFIKSAIIQNVEKQEGGWWRGDYGGKKQLWFPSNYVEEMVNPVALEPEREHLDENSPLGDLLRGVLDVPACQIAIRPEGKNNRLFVFSISMASVAHWSLDVAADSQEELQDWVKKIREVAQTADARLTEGKIMERRKKIALELSELVVYCRPVPFDEEKIGTERACYRDMSSFPETKAEKYVNKAKGKKFLQYNRLQLSRIYPKGQRLDSSNYDPLPMWICGSQLVALNFQTPDKPMQMNQALFMTGRHCGYVLQPSTMRDEAFDPFDKSSLRGLEPCAISIEVLGARHLPKNGRGIVCPFVEIEVAGAEYDSTKQKTEFVVDNGLNPVWPAKPFHFQISNPEFAFLRFVVYEEDMFSDQNFLAQATFPVKGLKTGYRAVPLKNNYSEDLELASLLIKIDIFPAKENGDLSPFSGTSLRERGSDASGQLFHGRAREGSFESRYQQPFEDFRISQEHLADHFDSRERRAPRRTRVNGDNRL
